# Measured values reported in publication PMC8026080, “Functional regulation of the structure-specific endonuclease FEN1 by the human cytomegalovirus protein IE1 suggests a role for the re-initiation of stalled viral replication forks” (PLoS Pathogens, 2021).
# By UniProt entry, the sequences of proteins in these tests, tags left out. Where a name states a change or a piece, a line headed by the entry shows the natural chain unless it says otherwise. Residues count along the entry.
# UniProt P39748: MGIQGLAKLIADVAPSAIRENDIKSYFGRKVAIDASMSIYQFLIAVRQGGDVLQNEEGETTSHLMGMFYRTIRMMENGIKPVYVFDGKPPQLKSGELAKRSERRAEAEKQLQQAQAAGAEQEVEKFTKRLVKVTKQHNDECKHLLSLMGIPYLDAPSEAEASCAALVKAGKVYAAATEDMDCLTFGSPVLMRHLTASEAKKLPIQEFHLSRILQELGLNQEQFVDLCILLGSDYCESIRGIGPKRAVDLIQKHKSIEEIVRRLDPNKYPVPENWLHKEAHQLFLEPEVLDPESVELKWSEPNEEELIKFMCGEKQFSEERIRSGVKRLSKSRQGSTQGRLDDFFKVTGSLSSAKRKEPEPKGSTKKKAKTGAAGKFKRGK
# FLAG-FEN1 176–380: residues 176-380 of P39748
# No constants are given. Whether binding was seen depends on the method and setting. For some of these results: Binding seen in cells or lysates may run through a third protein. Some results given as binding are weak or reduced against the parent protein; the word gives no strength.
# Key:
# [1] = biological target: FLAG-IE1 1–382 (human cytomegalovirus) (UniProt P13202); experiment: co-IP; HEK293T cotransfected with Myc- and FLAG-tagged constructs; lysis in CoIP buffer (50 mM Tris-HCl pH 8.0, 150 mM NaCl, 5 mM EDTA, 0.5% NP-40); IP with anti-FLAG M2 on protein-A-sepharose, 2 h at 4°C; Western blot with anti-Myc
# [2] = biological target: FLAG-IE1 (full length) (human cytomegalovirus) (UniProt P13202); experiment: as above
# [3] = biological target: FLAG-FEN1 176–380 (UniProt P39748); experiment: as above
# [4] = biological target: HCMV IE1 globular core region (amino acids 14 to 382) fused to the GAL4 DNA-binding domain (human cytomegalovirus) (UniProt P13202); experiment: two-hybrid; library screen in yeast Y153: GAL4-DBD-IE1 14-382 (pGBT9) as bait, B lymphocyte cDNA library in pACT as prey; selection on HWL- agar with 10 mM 3-aminotriazole, then XGal filter lift assay
# [5] = biological target: HCMV IE1 globular core region (amino acids 14 to 382) fused to the GAL4 DNA-binding domain (human cytomegalovirus) (UniProt P13202); experiment: two-hybrid; pairwise test in yeast Y153: GAL4-AD fusion and GAL4-DBD fusion co-transformed, selection on medium lacking Trp and Leu, XGal filter assay for beta-galactosidase at 30°C
# [6] = biological target: HCMV IE1 full length fused to the GAL4 DNA-binding domain (human cytomegalovirus) (UniProt P13202); experiment: as above
# [7] = biological target: HCMV IE1 1–359 (IE1 core with deletion of a C-terminal helix) fused to the GAL4 DNA-binding domain (human cytomegalovirus) (UniProt P13202); experiment: as above
# [8] = biological target: FLAG-FEN1 (full length) (UniProt P39748); experiment: co-IP; HEK293T cotransfected with Myc- and FLAG-tagged constructs; lysis in CoIP buffer (50 mM Tris-HCl pH 8.0, 150 mM NaCl, 5 mM EDTA, 0.5% NP-40); IP with anti-FLAG M2 on protein-A-sepharose, 2 h at 4°C; Western blot with anti-Myc
substance,measurement,setting,value
Myc-FEN1 176–380 (from UniProt P39748 176-380) (domain or fragment),binding,[1],binds
same,binding,[2],binds
Myc-IE1 1–382 Y206A mut (from UniProt P13202 1-382) (domain or fragment),binding,[3],binds
Myc-IE1 1–382 Helix 8 mut (from UniProt P13202 1-382) (domain or fragment),binding,[3],binds
Flap endonuclease 1 fragment aa 176–380 fused to the GAL4 activation domain (from UniProt P39748 176-380) (domain or fragment),binding,[4],binds
same,binding,[5],binds
same,binding,[6],binds
same,binding,[7],no binding
Myc-IE1 1–382 wildtype (from UniProt P13202 1-382) (domain or fragment),binding,[3],binds
same,binding,[8],binds
